Reference: PubChem BioAssay AID588453 (National Center for Advancing Translational Sciences (NCATS), 2011)
Several values for one entry are separate records, joined by “and”; a condition that tells them apart may be missing. Equal entries are not always repeated. The campaign covered roughly 390,000 compounds. About 4,000 (1%) were called active. Inconclusive means that the source gave no clear call. Such entries were picked first, then a sample of the others. The call rests on the fitted dose curve; in most records, active means well fitted inhibition curve with a large enough effect; inconclusive means small, poorly fitted or top-dose-only effect; inactive means no such curve, though single readings can be large or run the other way. Potencies of inconclusive entries are doubtful fits and often do not repeat.

Target: Thioredoxin reductase 1, cytoplasmic (Rattus norvegicus) (UniProt O89049)
Assay: qHTS Assay for Inhibitors of Mammalian Selenoprotein Thioredoxin Reductase 1 (TrxR1): qHTS; further: nearly all actives have a fitted effect of over 65% in size
Details: recombinant rTrxR1, NADPH fluorescence consumption, selenite substrate; series mostly up to 114 µM
Outline: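 Rat TrxR1 (90 nM in the dispensed reagent) was pre-reduced with 400 uM NADPH for 5 min at room temperature, then incubated with compound for 15 min. After 400 uM selenite was added, NADPH fluorescence (Ex 340/Em 450 nm) was followed for 8 min.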
On the % scale 0 is the no-effect control and ±100 the full control effect; potency means the concentration at half of the fitted maximal effect; tags describe the fitted curve by direction and shape.

UniProt O89049, sequence (O89049 whole entry, looked up): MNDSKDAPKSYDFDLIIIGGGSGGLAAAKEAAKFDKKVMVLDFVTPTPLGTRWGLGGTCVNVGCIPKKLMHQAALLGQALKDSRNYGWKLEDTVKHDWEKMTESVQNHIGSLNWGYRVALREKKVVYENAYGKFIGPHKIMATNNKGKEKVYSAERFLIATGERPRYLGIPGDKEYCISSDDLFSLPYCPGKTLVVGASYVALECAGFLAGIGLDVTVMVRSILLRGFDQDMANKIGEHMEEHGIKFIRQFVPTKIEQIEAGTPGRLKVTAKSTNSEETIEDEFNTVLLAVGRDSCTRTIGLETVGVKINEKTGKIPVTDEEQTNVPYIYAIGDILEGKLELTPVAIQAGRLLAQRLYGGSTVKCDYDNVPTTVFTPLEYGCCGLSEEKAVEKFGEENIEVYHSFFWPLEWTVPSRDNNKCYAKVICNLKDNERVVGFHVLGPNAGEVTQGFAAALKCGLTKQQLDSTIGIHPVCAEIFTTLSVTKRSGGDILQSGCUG

Structure (SMILES)	Potency	activity change, negative = inhibition
COc1ccc(-c2cc(=O)[nH]c(=O)[nH]2)cc1	inconclusive: 79.4 µM [inhibitor, single point]	–
O=C(COc1ccccc1[N+](=O)[O-])Nc1ccc(NC(=O)c2cc3ccccc3o2)cc1	inactive	–
CC(C)NC(=O)COC(=O)/C=C/c1ccco1	inconclusive: 70.8 µM [inhibitor, single point]	–
CC(C)(C)c1ccc(OCCC(=O)OCC(=O)NC(=O)NC2CCCC2)cc1	inconclusive: 28.2 µM [inhibitor, partial curve, poor fit]	–
O=C(O)c1ccccc1NS(=O)(=O)c1cccc(C(F)(F)F)c1	inactive	–
Cc1ccc(C)c(N2CCN(C(c3ccncc3)c3nnnn3Cc3ccccc3)CC2)c1 (centres undefined)	inconclusive: 50.1 µM [inhibitor, partial curve]	–
CCc1cccc(C)c1NC(=O)CSc1nnc(-c2ccco2)n1N	inconclusive: 70.8 µM [inhibitor, single point]	–
Cc1cccc(NC(=S)N2CCC(C(=O)c3ccc(F)cc3)CC2)c1	inconclusive: 56.2 µM [inhibitor, partial curve, poor fit]	–
C#CCNc1c2c(nc3ncnn13)CC(C)CC2 (centres undefined)	inconclusive: 56.2 µM [inhibitor, partial curve, poor fit]	–
COc1ccc(NC(=O)CN2CCCC2)cc1	inactive	–
O=C1Nc2ccc(Br)cc2/C1=N/N=C/C1=C(N2CCOCC2)C(=C\c2ccccc2)/CC1	inconclusive: 50.1 µM [inhibitor, partial curve]	–
CCOC(=O)CC(=O)CSc1nc2c(sc(=S)n2-c2ccccc2)c(=O)[nH]1	inconclusive: 12.6 µM [inhibitor, partial curve]	–
CC1=NN(Cc2ccccc2)C(=O)C1C(c1ccc(Cl)cc1)C(C#N)C#N (centres undefined)	active: 25.1 µM	–
CCOC(=O)c1ccc2ncc(C(=O)OCC)c(NCCCN3CCOCC3)c2c1	inconclusive: 50.1 µM [inhibitor, single point]	–
COc1cccc(CC(=O)NN2C(=O)NC3(CCCCC3)C2=O)c1	inactive	–
CC(C)CCn1c(=O)c2ccccc2n2c(CCl)nnc12	active: 22.4 µM	–
O=C(Oc1ccc2c(c1)O/C(=C\c1ccncc1)C2=O)c1ccccc1	inconclusive: 56.2 µM [inhibitor, partial curve, poor fit]	–
Cc1ccc(S(=O)(=O)/N=C2\C=C(NS(=O)(=O)c3ccccc3)C(=O)c3ccccc32)cc1	inconclusive: 70.8 µM [inhibitor, single point]	–
COC(=O)CCC(=O)OC1(C)C(=O)C2=CN(C3CCCC3)C(c3ccc(OC)cc3)=CC2=C(Br)C1=O (centres undefined)	inactive	–
CCN(CC)S(=O)(=O)c1nnc(NC(=O)c2ccco2)s1	inactive	–
CC(=O)Nc1cc2c(ccc3ccccc32)oc1=O	inconclusive: 39.8 µM [inhibitor, single point]	–
O=C(/C=C/c1ccco1)NC(=S)Nc1ccccc1N1CCCC1	inconclusive: 79.4 µM [inhibitor, single point]	–
O=c1oc2ccccc2c2c1ccc1ccccc12	inconclusive: 89.1 µM [inhibitor, partial curve, poor fit]	–

Structure (SMILES)	Potency	activity change, negative = inhibition
CSCCC(NC(=O)c1ccccc1Cl)C(=O)N(C)Cc1cccs1 (centres undefined)	inactive	–
CC(C)C[C@H]1CN([C@@H](Cc2ccc(O)cc2)CN2CCC[C@@H]2CN2C(=O)C(=O)NC[C@@H]2Cc2ccccc2)C(=O)C(=O)N1CC1CCCCC1	inactive	–
Cc1ccc(CNC(=O)c2ccc3c(c2)S(=O)(=O)c2ccccc2C3=O)o1	inconclusive: 22.4 µM [inhibitor, partial curve, poor fit]	–
O=C(NC1CCCC1)C(c1ccccc1)N(C(=O)c1csnn1)c1ccccc1F (centres undefined)	inactive	–
COC(=O)C1=C(C)N(CCc2ccc(OC)c(OC)c2)C(=O)/C1=C\N(C)C	active: 10 µM	–
CCOc1ccccc1NC(=S)NC(=O)CCCOc1ccc(Cl)cc1Cl	inconclusive: 79.4 µM [inhibitor, single point]	–
COc1cccc(NC(=O)CN2C(=O)CSc3ccc(S(=O)(=O)N4CCCCC4)cc32)c1	inactive	–
O=C(Nc1nnc(S(=O)(=O)N2CCN(c3ccc(F)cc3)CC2)s1)c1ccco1	inconclusive: 79.4 µM [inhibitor, partial curve]	–
Cc1ccccc1N=Cc1cccc(O)c1O	active: 70.8 µM	–
CCOc1c(Cl)cc(CNc2ccc3[nH]c(=O)[nH]c3c2)cc1OC	inconclusive: 7.94 µM [inhibitor, partial curve]	–
CCOC(=O)N1CCC(NC(=O)CS(=O)Cc2nc(-c3ccc(C)cc3)oc2C)CC1 (centres undefined)	inconclusive: 35.5 µM [inhibitor, partial curve]	–
C=C1CN(CC(=O)OC)S(=O)(=O)c2ccccc21	inconclusive: 14.1 µM [inhibitor, partial curve, poor fit] and inconclusive: 22.4 µM [inhibitor, single point]	–
CN(C)C/C(Cl)=C(\Cl)c1ccccc1	inconclusive: 50.1 µM [inhibitor, partial curve, poor fit]	–
O=C(c1ccco1)N1CCCC(N2CCN(c3ccccc3F)CC2)C1 (centres undefined)	inconclusive: 70.8 µM [inhibitor, single point]	–
COc1ccc(S(=O)(=O)/N=C2\C=C(NS(=O)(=O)c3ccccc3)C(=O)c3ccccc32)cc1	inconclusive: 56.2 µM [inhibitor, partial curve]	–
Cc1cc(N2C(=O)C(O)=C(C(=O)c3cc4ccccc4o3)C2c2cccs2)no1 (centres undefined)	inconclusive: 56.2 µM [inhibitor, partial curve, poor fit]	–
CN(C)/C=C/C(=O)c1ccc(Cl)c([N+](=O)[O-])c1	–	inactive: 31% [at 11.4 µM]
CC(C)Cn1c(SCC(=O)N2CCCc3ccccc32)nc2ccccc2c1=O	inactive	–
Cc1[nH]c(=O)c(C(=O)/C=C/c2ccccc2F)c2c1CCCC2	inconclusive: 10 µM [inhibitor, full curve]	–
CC(=O)NNc1cc(N2CCOCC2)nc(N2CCOCC2)n1	inconclusive: 28.2 µM [inhibitor, single point]	–
CCOc1ccc(NC(=S)NC(=O)C2CCCC2)cc1	inconclusive: 4.47 µM [inhibitor, full curve, poor fit]	–
Cc1ccc(NC(=O)Cn2c(=O)n(Cc3ccc4c(c3)OCO4)c(=O)c3oc4ccccc4c32)cc1C	inactive	–
Cc1cc(-c2csc(N)n2)c(C)n1CCC(C)C	inconclusive: 100 µM [inhibitor, single point]	–

Structure (SMILES)	Potency	activity change, negative = inhibition
[O-]/C(=C(\C(=S)Nc1ccccc1F)[n+]1ccccc1)c1ccc(OC(F)F)cc1	inconclusive: 79.4 µM [inhibitor, single point]	–
Cc1ccc(-n2ncc3c(NCc4cccnc4)ncnc32)c(C)c1	inactive	–
CC(C)CC1CCCC12NC(=O)NC2=O (centres undefined)	inactive	–
COc1cccc(/C=N/NC(=O)c2c(C)nc3ccc(Br)cn23)c1O	inactive	–
O=C(NC1CCCC1)C(c1ccc(Cl)cc1)N(Cc1ccc(F)cc1)C(=O)CCl (centres undefined)	active: 12.6 µM	–
Cc1ccc(CSc2nnc(SCC(=O)N/N=C/C=C/c3ccccc3[N+](=O)[O-])s2)cc1	inactive	–
CCNC(=S)NS(=O)(=O)c1ccc(C)cc1	inconclusive: 15.8 µM [inhibitor, full curve]	–
Oc1c(C(c2ccco2)N2CCC3(CC2)OCCO3)sc2ncnn12 (centres undefined)	inconclusive: 17.8 µM [inhibitor, partial curve]	–
CC(=O)N1CCN(c2csc3ccc(Cl)cc3c2=O)CC1	inactive	–
Cc1ccc2cc(CN(Cc3ccco3)C(=S)NCC3CCCO3)c(=O)[nH]c2c1C (centres undefined)	inconclusive: 50.1 µM [inhibitor, partial curve, poor fit]	–
O=C(CSc1ccc2ccccc2c1)NCCc1ccc(O)c(O)c1	inconclusive: 15.8 µM [inhibitor, partial curve]	–
COc1ccc(C2=NOC(C)(c3nnc(-c4ccncc4)o3)C2)cc1 (centres undefined)	inconclusive: 0.891 µM [inhibitor, partial curve, poor fit]	–
Cn1c(N)c(C(=O)Nc2ccccc2)c(=O)[nH]c1=O	inactive	–
CC(C)C[C@@H](CO)N1CCN(Cc2ccccc2)CCC1=O	inconclusive: 89.1 µM [inhibitor, single point]	–
CCCCN(CC)CCCNC(=O)c1cc2cc3ccc(OC)cc3nc2o1	inconclusive: 63.1 µM [inhibitor, single point]	–
COc1cccc(NC(=O)c2ccc(-c3ccc([N+](=O)[O-])cc3)o2)c1	inconclusive: 79.4 µM [inhibitor, single point]	–
CCN(CC(=O)Nc1ccc(S(=O)(=O)N2CCCC2)cc1)CC(=O)Nc1ccccc1C(F)(F)F	inconclusive: 31.6 µM [inhibitor, partial curve, poor fit]	–
CCc1nnc(SC(CC)C(=O)Nc2cccc(OC)c2)c2cc3oc(C)cc3n12 (centres undefined)	inactive	–
CCOC(=O)c1ccc(NC(=O)CC2C(=O)OCCN2CC)cc1 (centres undefined)	inconclusive: 50.1 µM [inhibitor, partial curve]	–
CCCn1nnnc1SCC(=O)Nc1nnc(CC)s1	inactive	–
Cc1ccc(S(=O)(=O)N2CCOC2CNC(=O)C(=O)NCC(C)C)cc1 (centres undefined)	inconclusive: 89.1 µM [inhibitor, partial curve, poor fit]	–
COc1ccccc1C1CCN(Cc2ccc3ccccc3c2)CC1	inactive	–
COc1ccc(-n2nc3c(c2NC(=O)c2cc4ccccc4o2)CS(=O)(=O)C3)cc1	inconclusive: 79.4 µM [inhibitor, single point]	–
